Values joined by “and” are separate entries in the source; they are usually repeats but may differ in a detail not shown here. Equal entries are not always repeated. The shares of active, inactive and inconclusive entries below differ from those in the screen. A potency beside an inconclusive call is a rough fit, not a confirmed value. Active and inactive are the calls of the source. Calls follow the shape of the dose curve; as a rule, active = well fitted inhibition curve with a large enough effect; inconclusive = small, poorly fitted or top-dose-only effect; inactive = flat fitted curve, though single readings scatter.
Test: qHTS for Inhibitors of Plasmodium falciparum (7G8) proliferation (AID 504316); also: nearly all actives have a fitted effect of over 65% in size;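 as to activity change, negative = inhibition: 0% = DMSO vehicle and -100% = 0.29 µM artemisinin full kill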
Details: P. falciparum 7G8 in erythrocytes, SYBR Green DNA, 72 h; activity change, negative = inhibition: at 6.7 µM (top of the series)
Summary of the method: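 Erythrocytes infected with P. falciparum line (0.3% parasitemia, 2.5% hematocrit final) incubated with compounds 72 h at 37 °C, 5% CO2; SYBR Green lysis buffer added, fluorescence read next day. Normalized to 0.29 uM artemisinin and DMSO.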
Potency is read from the fitted curve at half-maximal effect; tags tell the direction and shape of the fitted curve.

Q: For `CC(C)CON=C1C[C@@H](O)[C@@H](O)[C@@H]2[C@H]3C(=O)N(Cc4ccc5c(c4)OCO5)C(=O)[C@@H]3CC[C@@H]12`, which Potency is on record?
A: The Potency was inconclusive: 1.69 µM [inhibitor, partial curve, poor fit].

Q: With `C[C@H]1[C@@H](C(=O)N2CCCC2)CC(=O)C(=NOCc2ccccc2)C[C@H]1c1ccccc1` as the compound, how does the Potency read?
A: Its Potency is inconclusive: 0.0095 µM [inhibitor, full curve, poor fit].

Q: For `COc1ccc(-c2nc(-c3ccccc3)oc2Nc2ccc3ccccc3c2)cc1`, which “activity change, negative = inhibition” value is on record?
A: Its value is inactive: 10.2%.

Q: Which “activity change, negative = inhibition” value does the source give for `CCOC(=O)CCN1C(=O)[C@@H]2[C@H]3[C@H](O)[C@H](O)CC(=NNC(=O)OCc4ccc(OC)cc4)[C@@H]3CC[C@H]2C1=O` here?
A: The value was inactive: -4.59%.

Q: With `CCCCCC1=CC2=C(C(=O)OC)C(c3ccccc3)NC(=O)N2CC1` (stereo not drawn) as the compound, how does the “activity change, negative = inhibition” value read?
A: Its value is inactive: -13.8%.

Q: For `CCCCS(=O)(=O)N1C2=NC(C(=O)OC)=C(C(=O)OC)[C@@H]3N(C)c4ccccc4[C@]23C[C@H]1C(=O)OC`, which Potency is on record?
A: The Potency was inconclusive: 4.26 µM [inhibitor, partial curve, poor fit].

Q: Which Potency does the source give for `C=CC[C@@]1(c2ccc(OC)cc2)Oc2ccccc2C2=NCCN=C21` here?
A: The Potency was inconclusive: 0.426 µM [inhibitor, single point].

Q: For `COc1ccc(O[C@H]2C=C[C@@H](c3ccccc3)O[C@H]2COC(=O)CCC(C)=NO[C@H](C)c2cn([C@@H]3COC[C@@H]3O)nn2)cc1`, which Potency is on record?
A: Its Potency is inconclusive: 0.0849 µM [inhibitor, full curve, poor fit].

Q: For `COc1ccc2c(c1)C(=O)[C@@H](OC(=O)NCCc1ccc(OC)c(OC)c1)[C@H](c1ccc(OC)c(Br)c1)O2`, which Potency is on record?
A: The Potency was inconclusive: 2.13 µM [inhibitor, single point].

Q: With `COC(=O)C1=C(C)C(=O)[C@]2(O)c3ccccc3N(C)[C@]12C` as the compound, how does the Potency read?
A: The Potency was inconclusive: 0.0135 µM [inhibitor, partial curve, poor fit].

Q: Which Potency does the source give for `COc1ccc(-c2nc3c(c4c2C[C@H](c2ccccc2)OC4)CN(C(=O)NCc2ccco2)CC3)c(C)c1` here?
A: The Potency was inconclusive: 1.69 µM [inhibitor, single point] and inconclusive: 1.9 µM [inhibitor, partial curve, poor fit].

Q: For `CC(C)OC(=O)[C@@H]1CC[C@H](C)[C@@H](CCC[C@@H]2CC=C[C@H](CC#N)O2)O1`, which Potency is on record?
A: The Potency was inconclusive: 0.0048 µM [activator, full curve, poor fit].

Q: For `CC(=O)O[C@H](C(=O)O[C@@H]1C[C@@H](CCC[C@H]2O[C@H](C(=O)OC(C)C)CC[C@@H]2C)O[C@@H](CC#N)C1)c1ccccc1`, which Potency is on record?
A: The Potency was inconclusive: 0.849 µM [inhibitor, partial curve, poor fit].

Q: With `CCCCCCCc1cc2ccccc2c2c(C=O)c(CCCC)c(C(=O)OC)n12` as the compound, how does the Potency read?
A: Its Potency is inconclusive: 2.13 µM [inhibitor, single point].

Q: Which Potency does the source give for `C=CCN1c2ccccc2[C@]23CCC(=O)N(CCCOC(C)C)C2=NC(C(=O)OC)=C(C(=O)OC)[C@H]13` here?
A: The Potency was inconclusive: 1.51 µM [inhibitor, partial curve, poor fit].

Q: For `O[C@H](CC#CCOc1ccccc1)COCc1ccccc1`, which Potency is on record?
A: The Potency was inconclusive: 0.0953 µM [inhibitor, partial curve, poor fit].

Q: For `COc1cc(CCN2C(=O)NC(c3ccccc3)C(C(C)=O)=C2C)cc(OC)c1OC` (stereo not drawn), which Potency is on record?
A: The Potency was inconclusive: 4.26 µM [inhibitor, partial curve, poor fit].

Q: With `CCN1C(N(C)CCOC)=NC(c2cccc(F)c2)C(C(=O)OC)=C1C` (stereo not drawn) as the compound, how does the “activity change, negative = inhibition” value read?
A: Its value is inactive: 1.93%.

Q: With `CCCCC1=CC2=C(c3ccco3)C(=O)C(C)(OC(=O)c3ccc(OC)cc3)C(=O)C2=CN1CCCOC(C)C` (stereo not drawn) as the compound, how does the Potency read?
A: The Potency was inconclusive: 1.51 µM [inhibitor, single point].

Q: For `COC(=O)CCCC1=CC2=CC(=O)C(C)(OC(=O)c3cccs3)C(=O)C2=CN1C1CCCCC1` (stereo not drawn), which Potency is on record?
A: Its Potency is “inactive”.

Q: Which Potency does the source give for `CC(CCC(=O)OC[C@H]1O[C@H](C#Cc2ccccc2)C=C[C@H]1Oc1ccc(C)cc1)=NO[C@H](C)c1cn([C@H](CO)Cc2ccccc2)nn1` here?
A: Its Potency is inconclusive: 1.51 µM [inhibitor, single point].

Q: With `C=C(Br)CO[C@@H]1C=C[C@@H](c2ccccc2)O[C@@H]1COC` as the compound, how does the Potency read?
A: Its Potency is inconclusive: 0.0135 µM [inhibitor, partial curve, poor fit].

Q: For `CCc1cc2c(nc1CC)CCN(CCC(C)=NO[C@@H]1O[C@H](COC(C)=O)[C@@H](OC(C)=O)[C@H](OC(C)=O)[C@@H]1OC(C)=O)C2`, which Potency is on record?
A: Its Potency is inconclusive: 2.39 µM [inhibitor, single point].

Source: PubChem BioAssay (NCATS)
